# Reference: PubChem BioAssay (NCATS)
# The inconclusive results got no clear call from the source; some entries with a clear call stand among them for comparison. A potency beside an inconclusive call is a rough fit, not a confirmed value. Activity calls are given as the source filed them. Calls follow the shape of the dose curve; as a rule, active = well fitted inhibition curve with a large enough effect; inconclusive = small, poorly fitted or top-dose-only effect; inactive = flat fitted curve, though single readings scatter.
# Assay: BET inhibitor-based combinations targeting novel dependencies in MECOM-rearranged (r) AML: AML-194 cell line (AID 2202237; also: nearly all actives have a fitted effect of over 40% in size)
# Details: AML-194 (MECOM-r AML) viability, CellTiter-Glo, 48 h; series mostly up to 46 µM
# In short: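 Cells were plated at 500 per well and exposed to an 11-point dose series of each drug for 48 hr. Viability was measured by CellTiter-Glo luminescence, normalized to DMSO and empty-well controls, and summarized as AUC and per-cell-line Z-AUC.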
# Potency is read from the fitted curve at half-maximal effect; tags tell the direction and shape of the fitted curve.
row,SMILES,Potency
1,C[C@@H]1C[C@H]2[C@@H]3CCC4=CC(=O)C=C[C@]4(C)[C@@]3(Cl)[C@@H](O)C[C@]2(C)[C@@]1(OC(=O)c1ccco1)C(=O)CCl,"inconclusive: 8.33 µM [inhibitor, partial curve, poor fit]"
2,NC1(C(=O)N[C@@H](CCO)c2ccc(Cl)cc2)CCN(c2ncnc3[nH]ccc23)CC1,"inconclusive: 18.6 µM [inhibitor, partial curve]"
3,CCN(CC)CCOc1ccc(Nc2ncc3cc(-c4c(Cl)cccc4Cl)c(=O)n(C)c3n2)cc1,active: 2.95 µM
4,CN(NC(=O)CC(=O)NN(C)C(=S)c1ccccc1)C(=S)c1ccccc1,active: 0.0417 µM
5,CC(=O)O[C@H]1C(=O)[C@@]2(C)C([C@H](OC(=O)c3ccccc3)[C@]3(O)C[C@H](OC(=O)[C@H](O)[C@@H](NC(=O)c4ccccc4)c4ccccc4)C(C)=C1C3(C)C)[C@]1(OC(C)=O)CO[C@@H]1C[C@@H]2O (stereo partly drawn),"inconclusive: 0.0235 µM [inhibitor, full curve, poor fit]"
6,CN(C)C(=O)C(CCN1CCC(O)(c2ccc(Cl)cc2)CC1)(c1ccccc1)c1ccccc1,"inconclusive: 26.3 µM [inhibitor, partial curve, poor fit]"
7,Cc1csc(-c2nnc(Nc3ccc(Oc4ncccc4-c4ccnc(N)n4)cc3)c3ccccc23)c1,"inconclusive: 0.105 µM [inhibitor, partial curve, poor fit]"
8,C[C@H](Cc1ccc(O)c(O)c1)[C@@H](C)Cc1ccc(O)c(O)c1,"inconclusive: 18.6 µM [inhibitor, partial curve]"
